Assay results as given in EPA's CvTdb concentration-time database.
The source gives many values for each of these; only a part stands here.

How the values were obtained:
[1] = test system: Rat; assay: concentration in brain after dosing; conditions: 12 h; dosed: alpha/beta-Thujone mixture; 25 mg/kg; oral; Female; F344
[2] = test system: Rat; assay: concentration in plasma after dosing; conditions: 6 h; dosed: alpha/beta-Thujone mixture; 25 mg/kg; oral; Male; F344
[3] = test system: Rat; assay: concentration in plasma after dosing; conditions: 10 min; dosed: alpha/beta-Thujone mixture; 25 mg/kg; oral; Male; F344
[4] = test system: Rat; assay: concentration in brain after dosing; conditions: 10 min; dosed: alpha/beta-Thujone mixture; 50 mg/kg; oral; Female; F344
[5] = test system: Rat; assay: concentration in plasma after dosing; conditions: 3 h; dosed: alpha/beta-Thujone mixture; 50 mg/kg; oral; Female; F344
[6] = test system: Rat; assay: concentration in plasma after dosing; conditions: 1.5 h; dosed: alpha/beta-Thujone mixture; 50 mg/kg; oral; Male; F344
[7] = test system: Rat; assay: concentration in plasma after dosing; conditions: 0.5 h; dosed: alpha/beta-Thujone mixture; 50 mg/kg; oral; Male; F344
[8] = test system: Rat; assay: concentration in plasma after dosing; conditions: 1.5 h; dosed: alpha/beta-Thujone mixture; 25 mg/kg; oral; Female; F344
[9] = test system: Rat; assay: concentration in plasma after dosing; conditions: 10 min; dosed: 76231-76-0; 3.0 mg/kg; iv; Female; F344
[10] = test system: Rat; assay: concentration in plasma after dosing; conditions: 8 h; dosed: 76231-76-0; 3.0 mg/kg; iv; Male; F344
[11] = test system: Rat; assay: concentration in brain after dosing; conditions: 1 h; dosed: 76231-76-0; 3.0 mg/kg; iv; Male; F344
[12] = test system: Rat; assay: concentration in plasma after dosing; conditions: 5 min; dosed: 76231-76-0; 3.0 mg/kg; iv; Male; F344
[13] = test system: Rat; assay: concentration in plasma after dosing; conditions: 10 min; dosed: alpha/beta-Thujone mixture; 50 mg/kg; oral; Female; F344
[14] = test system: Rat; assay: concentration in brain after dosing; conditions: 0.5 h; dosed: 76231-76-0; 3.0 mg/kg; iv; Female; F344
[15] = test system: Rat; assay: concentration in plasma after dosing; conditions: 6 h; dosed: 76231-76-0; 3.0 mg/kg; iv; Male; F344
[16] = test system: Rat; assay: concentration in brain after dosing; conditions: 0.5 h; dosed: alpha/beta-Thujone mixture; 25 mg/kg; oral; Male; F344
[17] = test system: Rat; assay: concentration in brain after dosing; conditions: 2 min; dosed: alpha/beta-Thujone mixture; 50 mg/kg; oral; Male; F344
[18] = test system: Rat; assay: concentration in brain after dosing; conditions: 2 min; dosed: alpha/beta-Thujone mixture; 50 mg/kg; oral; Female; F344
[19] = test system: Rat; assay: concentration in brain after dosing; conditions: 2 min; dosed: alpha/beta-Thujone mixture; 50 mg/kg; oral; Female; F344; remark: listed apart in the source
[20] = test system: Rat; assay: concentration in brain after dosing; conditions: 10 min; dosed: alpha/beta-Thujone mixture; 25 mg/kg; oral; Male; F344
[21] = test system: Rat; assay: concentration in brain after dosing; conditions: 5 min; dosed: alpha/beta-Thujone mixture; 50 mg/kg; oral; Female; F344
[22] = test system: Rat; assay: concentration in brain after dosing; conditions: 1.5 h; dosed: alpha/beta-Thujone mixture; 50 mg/kg; oral; Male; F344
[23] = test system: Rat; assay: concentration in brain after dosing; conditions: 5 min; dosed: alpha/beta-Thujone mixture; 25 mg/kg; oral; Male; F344
[24] = test system: Rat; assay: concentration in plasma after dosing; conditions: 5 min; dosed: alpha/beta-Thujone mixture; 25 mg/kg; oral; Male; F344
[25] = test system: Rat; assay: concentration in brain after dosing; conditions: 0.5 h; dosed: alpha/beta-Thujone mixture; 25 mg/kg; oral; Female; F344
[26] = test system: Rat; assay: concentration in brain after dosing; conditions: 20 min; dosed: 76231-76-0; 3.0 mg/kg; iv; Male; F344
[27] = test system: Rat; assay: concentration in brain after dosing; conditions: 0.5 h; dosed: alpha/beta-Thujone mixture; 50 mg/kg; oral; Male; F344
[28] = test system: Rat; assay: concentration in brain after dosing; conditions: 10 min; dosed: 76231-76-0; 3.0 mg/kg; iv; Male; F344
[29] = test system: Rat; assay: concentration in plasma after dosing; conditions: 10 min; dosed: 76231-76-0; 3.0 mg/kg; iv; Male; F344
[30] = test system: Rat; assay: concentration in liver after dosing; conditions: 6000 h; dosed: 3,3',4,4',5-pentachlorobiphenyl; 1000 mg/kg; oral; Female; Harlan Sprague Dawley
[31] = test system: Rat; assay: concentration in liver after dosing; conditions: 2880 h; dosed: 3,3',4,4',5-pentachlorobiphenyl; 1000 mg/kg; oral; Female; Harlan Sprague Dawley
[32] = test system: Rat; assay: concentration in liver after dosing; conditions: 8184 h; dosed: 3,3',4,4',5-pentachlorobiphenyl; 1000 mg/kg; oral; Male; Harlan Sprague Dawley
[33] = test system: Rat; assay: concentration in liver after dosing; conditions: 1464 h; dosed: 3,3',4,4',5-pentachlorobiphenyl; 1000 mg/kg; oral; Female; Harlan Sprague Dawley
[34] = test system: Rat; assay: concentration in plasma after dosing; conditions: 8760 h; dosed: 3,3',4,4',5-pentachlorobiphenyl; 1000 mg/kg; oral; Male; Harlan Sprague Dawley
[35] = test system: Rat; assay: concentration in liver after dosing; conditions: 6000 h; dosed: 3,3',4,4',5-pentachlorobiphenyl; 1000 mg/kg; oral; Female; Harlan Sprague Dawley; remark: listed apart in the source
[36] = test system: Rat; assay: concentration in plasma after dosing; conditions: 8760 h; dosed: 3,3',4,4',5-pentachlorobiphenyl; 1000 mg/kg; oral; Male; Harlan Sprague Dawley; remark: listed apart in the source
[37] = test system: Rat; assay: concentration in plasma after dosing; conditions: 8184 h; dosed: 3,3',4,4',5-pentachlorobiphenyl; 1000 mg/kg; oral; Male; Harlan Sprague Dawley
[38] = test system: Rat; assay: concentration in liver after dosing; conditions: 1 h; dosed: 3,3',4,4',5-pentachlorobiphenyl; 1000 mg/kg; oral; Female; F344
[39] = test system: Rat; assay: concentration in plasma after dosing; conditions: 8184 h; dosed: 3,3',4,4',5-pentachlorobiphenyl; 1000 mg/kg; oral; Male; Harlan Sprague Dawley; remark: listed apart in the source
[40] = test system: Rat; assay: concentration in plasma after dosing; conditions: 7416 h; dosed: 3,3',4,4',5-pentachlorobiphenyl; 1000 mg/kg; oral; Female; F344
[41] = test system: Rat; assay: concentration in liver after dosing; conditions: 16 h; dosed: 3,3',4,4',5-pentachlorobiphenyl; 1000 mg/kg; oral; Female; F344
[42] = test system: Rat; assay: concentration in liver after dosing; conditions: 16 h; dosed: 3,3',4,4',5-pentachlorobiphenyl; 1000 mg/kg; oral; Female; F344; remark: listed apart in the source
[43] = test system: Rat; assay: concentration in liver after dosing; conditions: 1464 h; dosed: 3,3',4,4',5-pentachlorobiphenyl; 1000 mg/kg; oral; Female; Harlan Sprague Dawley; remark: listed apart in the source

CC(C)[C@]12CC(=O)[C@H](C)[C@H]1C2 [alpha-Thujone]
Conditions | concentration in brain [ng/g] | concentration in plasma [ng/mL]
[1] | 19.7 | –
[2] | – | 42.3
[3] | – | 423
[4] | 2770 | –
[5] | – | 256
[6] | – | 247
[7] | – | 304
[8] | – | 131
[9] | – | 357
[10] | – | 14.7
[11] | 108 | –
[12] | – | 1100
[13] | – | 868
[14] | 322 | –
[15] | – | 22.5
[16] | 432 | –
[17] | 869 | –
[18] | 16.5 | –
[19] | 342 | –
[20] | 558 | –
[21] | 915 | –
[22] | 974 | –
[23] | 287 | –
[24] | – | 232
[25] | 1020 | –
[26] | 989 | –
[27] | 424 | –
[28] | 1700 | –
[29] | – | 422

Clc1ccc(-c2cc(Cl)c(Cl)c(Cl)c2)cc1Cl [3,3',4,4',5-pentachlorobiphenyl]
Conditions | concentration in liver [pg/g] | concentration in plasma [ng/mL]
[30] | 858 | –
[31] | 2260 | –
[32] | 1350 | –
[33] | 2970 | –
[34] | – | 0.0269
[35] | 762 | –
[36] | – | 0.0288
[37] | – | 0.0233
[38] | 1520 | –
[39] | – | 0.111
[40] | – | 0.0359
[41] | 14400 | –
[42] | 18700 | –
[43] | 4340 | –
